According to the supplement of paper PMC8728848:
This is one part of the list.

Legend:
Test in all cases: glycan array binding signal (z-score within array); higher = stronger binding
Conditions in all cases: glycan notation: IUPAC condensed, linker removed
[1] = target: Fuc(a1-2)[GalNAc(a1-3)]Gal(b1-4)GlcNAc(b1-3)GalNAc
Method in brief: (§1)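 Glycan array data were curated from 3228 arrays in the Consortium for Functional Glycomics database and kept only where the protein sequence was available. Glycan names were converted to IUPAC-condensed notation, and columns mapping to the same glycan were averaged. The binding signal is a within-array Z-score, averaged across arrays of the same protein sequence at different concentrations or buffers and across linkers. Negative Z-scores can be read as non-binding.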

[2] = target: Fuc(a1-2)[GalNAc(a1-3)]Gal(b1-4)GlcNAc(b1-3)[Fuc(a1-2)[GalNAc(a1-3)]Gal(b1-4)GlcNAc(b1-6)]GalNAc
Method in brief: as §1

[3] = target: Fuc(a1-2)[GalNAc(a1-3)]Gal(b1-4)GlcNAc(b1-6)GalNAc
Method in brief: as §1

[4] = target: Fuc(a1-2)[GalNAc(a1-3)]Gal(b1-4)[Fuc(a1-3)]GlcNAc
Method in brief: as §1

[5] = target: Fuc(a1-2)[GalNAc(a1-3)]Gal(b1-4)[Fuc(a1-3)]GlcNAc(b1-3)GalNAc
Method in brief: as §1

[6] = target: Fuc(a1-2)[GalNAc(a1-4)]Gal(b1-4)GlcNAc
Method in brief: as §1

[7] = target: Fuc(a1-2)[GalNAc(b1-3)]Gal
Method in brief: as §1

[8] = target: Fuc(a1-3)GlcNAc
Method in brief: as §1

[9] = target: Fuc(a1-3)[Gal(b1-4)]Glc6S
Method in brief: as §1

[10] = target: Fuc(a1-3)[Gal(b1-4)]GlcNAc
Method in brief: as §1

[11] = target: Fuc(a1-3)[Gal(b1-4)]GlcNAc(b1-2)Man
Method in brief: as §1

[12] = target: Fuc(a1-3)[Gal(b1-4)]GlcNAc(b1-2)Man(a1-3)[Fuc(a1-3)[Gal(b1-4)]GlcNAc(b1-2)Man(a1-6)]Man(b1-4)GlcNAc(b1-4)GlcNAc
Method in brief: as §1

[13] = target: Fuc(a1-3)[Gal(b1-4)]GlcNAc(b1-2)Man(a1-3)[Fuc(a1-3)[Gal(b1-4)]GlcNAc(b1-2)Man(a1-6)]Man(b1-4)GlcNAc(b1-4)[Fuc(a1-6)]GlcNAc
Method in brief: as §1

[14] = target: Fuc(a1-3)[Gal(b1-4)]GlcNAc(b1-3)Gal(b1-3)[Fuc(a1-4)]GlcNAc
Method in brief: as §1

[15] = target: Fuc(a1-3)[Gal(b1-4)]GlcNAc(b1-3)Gal(b1-4)[Fuc(a1-3)]GlcNAc
Method in brief: as §1

[16] = target: Fuc(a1-3)[Gal(b1-4)]GlcNAc(b1-3)Gal(b1-4)[Fuc(a1-3)]GlcNAc(b1-3)Gal(b1-4)[Fuc(a1-3)]GlcNAc
Method in brief: as §1

[17] = target: Fuc(a1-3)[Gal(b1-4)]GlcNAc(b1-3)GalNAc
Method in brief: as §1

[18] = target: Fuc(a1-3)[Gal(b1-4)]GlcNAc(b1-4)Gal(b1-4)[Fuc(a1-3)]GlcNAc
Method in brief: as §1

[19] = target: Fuc(a1-3)[Gal(b1-4)]GlcNAc(b1-4)Gal(b1-4)[Fuc(a1-3)]GlcNAc(b1-4)Gal(b1-4)[Fuc(a1-3)]GlcNAc
Method in brief: as §1

[20] = target: Fuc(a1-3)[Gal(b1-4)]GlcNAc(b1-6)GalNAc
Method in brief: as §1

[21] = target: Fuc(a1-3)[Gal(b1-4)]GlcNAc(b1-6)[Gal(b1-3)GlcNAc(b1-3)]Gal(b1-4)Glc
Method in brief: as §1

[22] = target: Fuc(a1-3)[Gal(b1-4)]GlcNAc6S
Method in brief: as §1

[23] = target: Fuc(a1-3)[Gal3S(b1-4)]Glc
Method in brief: as §1

[24] = target: Fuc(a1-3)[Gal3S(b1-4)]Glc6S
Method in brief: as §1

[25] = target: Fuc(a1-3)[Gal3S(b1-4)]GlcNAc
Method in brief: as §1

[26] = target: Fuc(a1-3)[Gal3S(b1-4)]GlcNAc6S
Method in brief: as §1

[27] = target: Fuc(a1-3)[GalNAc(b1-4)]Gal(b1-4)GlcNAc
Method in brief: as §1

[28] = target: Fuc(a1-3)[GalNAc(b1-4)]GlcNAc
Method in brief: as §1

[29] = target: Fuc(a1-3)[GalNAc(b1-4)]GlcNAc6S
Method in brief: as §1

[30] = target: Fuc(a1-4)GlcNAc
Method in brief: as §1

B1: Epa7 (Candida glabrata), Q6DTM6_CANGB (protein)
chain: MGSSHHHHHHSSGLVPRGSHMKDDYSSFLSNNNLGWTDPTEFPLGCSPNVTTPKNGLSMELYSYDLRKNGSYPCWDAAYLDPNYPRTGYKSHRLLAKVDGVTGNINFYYHATKGCTPEIDHLPASYNYPKPLTMTNFTMLLYGYFKPKVTGYHTFTISADDLLFVNFGAGNAFDCCKRESSADDFGNYQAYAVWGSQTAKDDLTVHLDAGLYYPIRIFFNNREYDAELSLTLKTESDSNPVIDFSDYFYSFDDTKDGCPGLVSYDTS
glycan array binding signal (z-score) [1]: -0.231 | glycan array binding signal (z-score) [2]: -0.216 | glycan array binding signal (z-score) [3]: -0.221 | glycan array binding signal (z-score) [4]: -0.239 | glycan array binding signal (z-score) [5]: -0.052 | glycan array binding signal (z-score) [6]: -0.256 | glycan array binding signal (z-score) [7]: -0.236 | glycan array binding signal (z-score) [8]: -0.248 | glycan array binding signal (z-score) [9]: -0.25 | glycan array binding signal (z-score) [10]: -0.253 | glycan array binding signal (z-score) [11]: -0.208 | glycan array binding signal (z-score) [12]: -0.232 | glycan array binding signal (z-score) [13]: -0.153 | glycan array binding signal (z-score) [14]: -0.256 | glycan array binding signal (z-score) [15]: -0.224 | glycan array binding signal (z-score) [16]: -0.127 | glycan array binding signal (z-score) [17]: -0.19 | glycan array binding signal (z-score) [18]: -0.271 | glycan array binding signal (z-score) [19]: -0.286 | glycan array binding signal (z-score) [20]: -0.112 | glycan array binding signal (z-score) [21]: -0.164 | glycan array binding signal (z-score) [22]: -0.233 | glycan array binding signal (z-score) [23]: -0.254 | glycan array binding signal (z-score) [24]: -0.279 | glycan array binding signal (z-score) [25]: -0.269 | glycan array binding signal (z-score) [26]: -0.237 | glycan array binding signal (z-score) [27]: -0.279 | glycan array binding signal (z-score) [28]: -0.213 | glycan array binding signal (z-score) [29]: -0.234 | glycan array binding signal (z-score) [30]: -0.253
